# Measured values published in ChEMBL document CHEMBL4888484, “Replenishing the malaria drug discovery pipeline: Screening and hit evaluation of the MMV Hit Generation Library 1 (HGL1) against asexual blood stage Plasmodium falciparum ,using a nano luciferase reporter read-out” (2022).
# About 540 (0.36%) of roughly 150,000 compounds showed an effect of 50% or more. The list shows a part of the results.
# Tested on: Plasmodium falciparum
# Test: Primary screen in NF54 nanoGlo assay, in single point, at 2uM, 72h; a lower Z score goes with more inhibition
# Format: functional, Erythrocyte
# Conditions: timepoint 72 hour
SMILES,% Inhibition [%],Z score
Cc1nn(C)cc1C(=O)NC1(C(=O)N(C)C)CCCCC1,-15,2.35
Cc1noc2ncnc(N3CCC(Cc4nncn4C)CC3)c12,-7,1.3
NCc1nc(CN2C(=O)c3ccccc3C2=O)no1,-9,0.99
Cn1ncnc1NC(=O)c1cncc(Br)c1,10,-1.15
CN(CC(F)(F)F)C(=O)CNc1ncnc2ccc(F)cc12,5,-0.74
NC(=O)C1CCN(C(=O)[C@@H]2CC(c3ccc(Cl)c(Cl)c3)=NO2)CC1,-10,1.39
Cc1cc(OCc2nc(-c3nonc3N)no2)cc(C)c1Cl,-2,0.25
Cc1n[nH]c(C)c1CNC(=O)C(C)(C)NC(=O)C(F)(F)F,-7,0.84
CCCn1ccnc1CN1CC[C@](C)(O)[C@H](Cc2ccccc2)C1,-8,1
COCCC(=O)Nc1ccc(OC)c2nonc12,5,-0.86
CC12CN(CCS(C)(=O)=O)CC1(C)CN(Cc1ccccc1)C2 (configuration not stated),-9,1.25
Cn1cncc1[C@@H](O)C(=O)N1CCN(C(=O)Cc2c[nH]c3ccccc23)CC1,-4,0.4
COc1ccc(NC(=O)Cn2c(C)cc3nc4n(c(=O)c32)CCCCC4)cc1,-3,0.39
Cc1cccc(OCC(=O)N2C[C@@H]3C[C@H](N(C)C)CN3C(=O)[C@@H]2CC(C)C)c1,-8,1.02
O=C1CN(C(=O)c2ccc(CS(=O)(=O)c3ccccc3)o2)c2ccccc2N1,-8,1.04
CCc1nc(NCc2cccnc2N(C)C)ncc1C,-11,1.52
O=C(NCc1ncccc1O)[C@H]1C[C@@H]1c1ccccc1,-14,1.78
CN(C(=O)CN1CCN([C@H]2CCOC2=O)CC1)C1CCCCC1,-11,1.09
Cc1cc(C(=O)CN2C(=O)NC3(CCCCCCC3)C2=O)c(C)n1CCc1ccc(F)cc1,4,-0.5

SMILES,% Inhibition [%],Z score
C[C@@H](c1cccs1)N(C)Cc1ccsc1,-17,1.85
O=C(COc1ccc(Cl)cc1C1CCCCC1)N1CCC[C@H]1c1ccncc1,-4,0.43
CC(=O)N[C@H]1C[C@@H](c2ccc(Cn3cccn3)cc2)O[C@@H](C(C)C)C1,-1,0.17
Cc1ccc(NC(=O)c2ccccn2)nc1,-4,0.36
O=C(NCCOc1ccc2c(c1)OCO2)Nc1ccncc1,-1,0.15
CCC(C)NC(=O)C(C)Oc1ccc(Br)cc1 (configuration not stated),-10,1.27
Cc1oncc1S(=O)(=O)N1CCC2(CC1)C[C@H](c1ccccc1)CN(C)C2,-4,0.83
CCOC(=O)NC(C(=O)NC(C)c1ccccc1)C(C)C (configuration not stated),-2,0.33
CCCCS(=O)(=O)N1CCc2[nH]cnc2C1,-1,0.28
COc1ccc(NC(=O)CCCOc2ccc(C(C)=O)cc2)cc1S(=O)(=O)N1CCCCC1,-5,0.56
Cc1noc(CO[C@H]2CCCN(C(=O)CCc3c(C)noc3C)C2)n1,-3,0.36
Cc1cccc(C[C@@]2(C)CCCN2C(=O)c2cc(O)n(C)n2)c1,4,-0.63
Cc1cccc(NC(=O)c2ccc3nn(CC(=O)Nc4ccc(C)c(Cl)c4)c(=O)n3c2)c1,-15,1.3
O=S(=O)(NCCCN1CCCC1)c1ccc(Cl)cc1,-15,1.75
C#Cc1cccc(N(C)S(=O)(=O)c2ccc(N(C)C(C)=O)cc2)c1,-2,0.4
O=C(c1ccc2nsnc2c1)N1CCN(C[C@H](O)C2CC2)CC1,-6,0.93
COCc1cc(CNc2ccnc(C(F)(F)F)n2)n[nH]1,0,0.03
OC1CCC(Nc2nc(NC3CCC(O)CC3)c3ccccc3n2)CC1 (configuration not stated),12,-1.96
CC(C)(C)CCN[C@H]1CC[C@@H](CO)CC1,-6,0.65

SMILES,% Inhibition [%],Z score
CNc1snc(C)c1C(=O)N1CC(C)OC(C)C1 (configuration not stated),-7,0.65
Cc1cc([C@H](C)NC(=O)CCOC2CCOCC2)c(C)s1,4,-0.53
CCn1cnnc1NC(=O)c1sccc1C1CC1,-12,1.23
COc1ccc(CC(=O)N2CC[C@H]3CN(S(C)(=O)=O)C[C@@]3(CO)C2)cc1,4,-0.73
Nc1nc(CCC(=O)NCc2cc(F)c(F)cc2F)cs1,0,-0.06
CC(C)N(Cc1cnn(C)c1)C(=O)COC[C@H]1CCCO1,-9,1.63
Nc1nc(CCCNCc2cnc3c(-c4ccccc4)cnn3c2)cs1,0,-0.06
O=C(Cn1nnc2ccccc21)Nc1ccc2c(c1)CCC2,6,-0.72
Cc1sc(C(=O)O)cc1NC(=O)C[C@H]1CCCCO1,0,-0.05
Cc1nnsc1CN1CCCN(S(=O)(=O)N2CCCC2)CC1,-5,0.84
C[C@@H]1CN(C(=O)C2CC2c2ccccc2OC(F)(F)F)CCN1C(=O)OC(C)(C)C (some centres not stated),-10,0.94
COc1ccc(-n2nc(C)c3c2NC(=O)C[C@@H]3c2ccccc2F)nn1,-11,1.38
COCc1ccc(C(=O)N2CCC[C@@H]2CC(=O)c2ccccc2)cc1,-1,0.07
Cc1cccc(CNC(=O)[C@H]2CCN(c3cn[nH]c(=O)c3)C2)c1,-12,1.58
Cc1ccc([C@@H]2c3nc[nH]c3CCN2CC(C)(C)CN(C)C)cc1,-14,1.2
CCCCN(C)c1ncccc1S(N)(=O)=O,-6,0.76
CCNC(=O)N1CC[C@H](NC(=O)c2oc3ccccc3c2CC)C1,-14,2.71
COc1ccc(N2C(=O)[C@H](CC(=O)N3CCc4ccccc4C3)N=C2O)cc1,-7,0.94
